Reference: PubChem BioAssay (NCI)
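Each compound was tested at five concentrations against cells in 96-well plates for 48 hours. GI50 marks 50% less growth. TGI: total growth inhibition.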

System: NCI-H322M lung
Assay: DTP human tumour cell line panel, 48 h

SMILES | TGI [µM] | GI50 [µM]
Cc1ccc(N=C2N=C(N3CC(C)OC(C)C3)c3ccccc32)cc1 (centres undefined) | 86.7 | –
COc1ccc(N=Nc2ccc3oc(=O)c(C(=O)Nc4ccccc4C)cc3c2)cc1 | > 10 | –
Nc1ncc(-c2ccc3ncnc(N4CCc5ccc(Cl)cc54)c3c2)cc1C(F)(F)F | 14.9 | 1.32
C[N+](C)(C)c1cc[c]([Sn]([c]2ccc([N+](C)(C)C)cc2)([c]2ccc([N+](C)(C)C)cc2)[c]2ccc([N+](C)(C)C)cc2)cc1 | > 100 | > 100
CCCCOc1ccc(/C=N/Nc2cc(C)nc3ccc(Br)cc23)cc1 | 3.15 | 1.76
NS(=O)(=O)c1ccc(NC(=O)C2C(=O)C(=O)N(c3ccc(S(N)(=O)=O)cc3)C2=O)cc1 (centres undefined) | > 100 | –
CC/C(Cl)=N\OC(=O)Nc1ccc(OC)c(C)c1 | > 100 | –
COc1ccc(C2C(C#N)=C(N)Oc3c2sc2c(Br)cccc32)cc1 (centres undefined) | 24.2 | 4.73
O=C(Nc1cc(F)c(F)cc1C(=O)O)c1ccc(-n2ccnc2)nn1 | > 100 | > 100
CC(=O)NNc1nc(C)c(C(=O)NNC(=O)C(=O)Nc2c([N+](=O)[O-])ccc(C)c2C)s1 | > 100 | –
COc1cc2ncnc(Nc3ccc(Oc4ccnc(C)c4)c(C)c3)c2cc1NC(=O)CC1CCSS1 (centres undefined) | 2.74 | 1.07
N#Cc1ccc(Oc2ccccc2)cc1C#N | > 100 | –
COC(=O)c1c(O)ccc2c1c1c(n2Cc2ccccc2OC)C(=O)c2ccccc2C1=O | 74.6 | –
COCN(C)c1nc(N(C)C)nc(N(C)C)n1 | > 100 | –
C=CCOCCC(CC=C)C(=O)CC(=O)OC (centres undefined) | > 100 | –
Cn1cc(C2=C(c3cn(CCCN)c4ccccc34)C(=O)NC2=O)c2ccccc21 | > 19.3 | 6.11
O=C(Nc1ccc(Cl)cc1)c1cc([N+](=O)[O-])ccc1O | 39.9 | –
S=C(N/N=C/c1ccccn1)N1CC2CCC(CC2)C1 | 10.7 | –
COc1ccccc1/C=C1\S/C(=N/Nc2nc(C)c(C(C)=O)s2)NC1=O | > 100 | –
O=C(N=c1nc(NC(=O)c2ccccc2)ss1)c1ccccc1 | > 100 | –
Cc1nc2cc3ccccc3cc2[nH]c1=O | > 100 | –
COc1cc([C@@H]2c3cc4c(cc3[C@@H](OC(=O)c3cccc(N)c3)C3COC(=O)[C@@H]32)OCO4)cc(OC)c1O (some centres undefined) | > 100 | –
CC1C=CC(C(N)C(=O)O)O1 (centres undefined) | > 100 | –

SMILES | TGI [µM] | GI50 [µM]
CO[C@@]12C[C@@H](C)[C@]34O[C@H]3C[C@]3(C)O[C@]43CC1=C(C)C(=O)O2 | > 100 | –
c1ccc(-c2n(Cc3ccc4ccccc4c3)c3ccccc3[n+]2Cc2ccc3ccccc3c2)cc1 | 2.45 | 1.2
COc1ccc(CCNC(=O)c2ccccc2C2c3ccc(OCc4ccccc4)cc3Oc3cc(OCc4ccccc4)ccc32)cc1OC | > 100 | –
CCNC1=C(NC(=O)c2ccccc2)C(=O)c2ccccc2C1=O | > 100 | –
O=C1Nc2ccccc2/C1=C\c1nc(-c2ccccc2F)n2ccccc12 | 14.1 | 4.16
CCC(=O)N1C/C(=C/c2ccc(Br)cc2)C(=O)/C(=C/c2ccc(Br)cc2)C1 | 8.11 | 2.6
O=C(CC1C(=O)Nc2ccccc2S1(=O)=O)Nc1ccc(Cl)cc1 (centres undefined) | > 100 | –
COc1ccc(O)cc1C(O)c1ccccc1 (centres undefined) | > 100 | –
CCC/C(Cl)=N/OC(NC(=O)OCC)(C(F)(F)F)C(F)(F)F | > 100 | –
Cc1ccc(/C=C/C(=O)c2sc(-n3nc(-c4ccccc4)cc3-c3ccccc3)nc2C)cc1 | > 100 | –
O=CC1C(Cl)=Nc2nc3ccccc3n2C1c1ccccc1 (centres undefined) | > 100 | –
O=c1oc2ccccc2c(O)c1C(c1ccc(-c2ccccc2)cc1)c1c(O)c2ccccc2oc1=O | > 100 | –
Nc1nc2c(-c3ccc([N+](=O)[O-])cc3)nnn2c2ccccc12 | > 100 | –
O=C1c2cccc(O)c2C(=O)c2c(O)cccc21 | > 100 | –
C#CC1(O)C(COP(=O)(O)OCC2OC(n3cc(F)c(=O)[nH]c3=O)CC2O)OC(n2ccc(N)nc2=O)C1O (centres undefined) | – | < 0.0109
Nc1cc2ncnn2c(SCC(=O)N/N=C/C(Br)=C\c2ccccc2)n1 | 89.4 | –
CCCc1nc(Cl)c(Cl)c(Cl)n1 | 26.5 | –
O=[N+]([O-])c1cc(N=Nc2c(O)ccc3cc(S(=O)(=O)O)ccc23)c(O)c([N+](=O)[O-])c1 | > 100 | –
COc1ccccc1/C=C\C(=O)C1COCN1 (centres undefined) | 39.9 | –
Cc1ccc(S(=O)(=O)N/N=C2\CCC3(O)CC2(C)CCC2C3CC2(C)C)cc1 (centres undefined) | > 100 | –
CCCCNC(=S)OCCC(C)CCCC(C)C (centres undefined) | > 100 | –
O=S(=O)(O)c1ccc2c(N=Nc3ccc(S(=O)(=O)O)c4ccccc34)c(O)c(S(=O)(=O)O)cc2c1 | > 100 | –
COc1ccc(C(=O)c2cc3c(N)c(C(=O)Nc4cccc(Br)c4C)sc3nc2C)cc1 | > 100 | 0.382

SMILES | TGI [µM] | GI50 [µM]
COC(=O)CN1C(=O)C2(C(=O)OC)OC1(c1ccc([N+](=O)[O-])cc1)C1C(=O)N(c3ccccc3)C(=O)C12 (centres undefined) | > 100 | –
C[P+](c1ccccc1)(c1ccc(Cl)cc1)c1ccc(Cl)cc1 | 63.9 | –
CCCCCCCCCCCCN=C(N)c1ccc(N2CCN(c3ccc(C(N)=NCCCCCCCCCCCC)cc3)CC2)cc1 | 28.7 | 10.6
NCCCNc1nc2ccccc2c2c(=O)c3cccc(Cl)c3sc12 | 2.84 | 1.46
COc1cc2c(c(OC)c1OC)-c1ccc(SC)c(=O)cc1[C@@H](NC(=O)C(F)(F)F)CC2 | 11.3 | –
Nc1ncc(C=O)c(NCC2(CO)CCC2)n1 | > 100 | –
COc1ccc(-c2cn(-c3ccc(OC)c(OC)c3)c(=O)[nH]2)cc1 | > 100 | > 100
CS(=O)(=O)c1ccc2nc(-c3ccc(O)cc3)sc2c1 | 30.7 | –
C/C=C/C(=O)[O-].C/C=C/C(=O)[O-].N.N.N.N.[Co+3].[O-][Cl+3]([O-])([O-])[O-] | > 100 | > 100
O=C(Nc1ccccc1)OC1OC(COC(=O)c2ccccc2)C(OC(=O)c2ccccc2)C1OS(=O)(=O)c1ccc([N+](=O)[O-])cc1 (centres undefined) | > 100 | –
Cc1ccc(S(=O)(=O)N/N=C2\CCCCCCCCCCC2CN(C)C)cc1 (centres undefined) | 48.1 | –
[N-]=[N+]=NCCCn1c2c(c3ccc([N+](=O)[O-])cc3c1=O)C(=O)c1cc(-c3ccccc3)ccc1-2 | > 100 | > 100
CCN(CC)C(=S)SCC(=O)Nc1nc2c(s1)CCCC2 | > 100 | –
O=[N+]([O-])c1cc(-[n+]2cc([O-])on2)ccc1Cl | 27.7 | –
CCc1cc2c(O)c(c1)Cc1cc(CC)cc(c1O)Cc1cc(CC)cc(c1O)Cc1cc(CC)cc(c1O)Cc1cc(CC)cc(c1O)Cc1cc(CC)cc(c1O)Cc1cc(CC)cc(c1O)C2 | > 100 | –
Cc1nc2sc3c(N)ncnc3c2c(C)c1C | > 25 | > 25
O=C1NC2(CCCCC2)C(=O)N1CCN(CCCl)CCCl | > 250 | > 25
Cc1ccc(Cl)c(NS(=O)(=O)c2ccc(-c3cnc(C4CC4)o3)cc2)c1 | > 100 | 0.598
Nc1nc(Cl)c2ncn(Cc3cccc(CCl)c3)c2n1 | 23.5 | –
CCc1c(CNC2=NCCN2)c(CC)c(CNC2=NCCN2)c(CC)c1CNC1=NCCN1 | > 100 | –
COc1ccc2c(O)c(/C=C3\N=Nc4ncccc43)oc2c1C[C@@H]1CCNC[C@H]1F | 6.83 | 1.94
COc1ccc(-c2csc(Cc3nc4c(Br)cc(Br)cc4c(=O)n3-c3ccc(OC)cc3)n2)cc1 | > 100 | –
C=CCNC1=C2C[C@@H](C)C[C@H](OC)[C@H](O)[C@@H](C)/C=C(\C)[C@H](OC(N)=O)[C@@H](OC)/C=C\C=C(/C)C(=O)NC(=CC1=O)C2=O | 21 | –
